Target: single-chain human FcRn, FLAG/His-tagged (human, UniProt P61769 part only; P55899 part only)
Experiment: SPR, schFcRn immobilised; by the numbers, the ratio of KD at pH 7.4 to KD at pH 6.0

B1: HSA13 (V418M, T420A, E505G, V547A) (other)
chain: not shown
notes: mature; used for the co-crystal structure (PDB 4K71)
Fold increase: 930 fold
